Source: the supplement of paper PMC4967469
pIC50: −log10 of the molar value. The IC50 comes from the fitted curve, where viability falls to half of the control; fits outside the tested doses are given as limits. For AUC the same curve is integrated over the 256-fold range of doses and scaled to a fraction; the more sensitive the line, the further below 1. For some of these results: Any top dose called inferred comes from the curve model; the source does not state it. For some of these results: Where an entry number is given, a second screen of the drug exists; the two often differ.

Experiments:
Assay in all cases: Viability of human cancer cell lines after 72 h of drug (GDSC screen)
OSU-03012 = compound: NCC(=O)Nc1ccc(-n2nc(C(F)(F)F)cc2-c2ccc3c(ccc4ccccc43)c2)cc1 [OSU-03012]; details: top dose 16 µM; top dose inferred
Procedure: (§1)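 Human cancer cell lines in 384-well plates, medium with 10% serum, drug for 72 h over a 256-fold dose range (nine 2-fold or five 4-fold steps up to the top dose). Adherent lines were fixed and stained with the nucleic acid dye Syto60, suspension lines read with resazurin; signal relative to control wells, capped at 0 and 100%. One two-parameter sigmoid per drug and line, fitted in a mixed model over all curves with the slope shared within a line.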

CUDC-101 = compound: C#Cc1cccc(Nc2ncnc3cc(OC)c(OCCCCCCC(=O)NO)cc23)c1 [CUDC-101]; details: top dose 5.12 µM; top dose inferred
Procedure: as §1

AC220 = compound: CC(C)(C)c1cc(NC(=O)Nc2ccc(-c3cn4c(n3)sc3cc(OCCN5CCOCC5)ccc34)cc2)no1 [AC220]; details: top dose 1.024 µM; top dose inferred
Procedure: as §1

5-Fluorouracil = compound: O=c1[nH]cc(F)c(=O)[nH]1 [5-Fluorouracil]; details: top dose 32 µM; top dose inferred
Procedure: as §1

JNK-9L = compound: Fc1cc(-c2ccnc(Nc3ccc(-n4cnc(N5CCOCC5)n4)cc3)n2)cc(N2CCOCC2)c1 [JNK-9L]; details: top dose 5.12 µM; top dose inferred
Procedure: as §1

RDEA119 = compound: COc1cc(F)c(F)c(Nc2ccc(I)cc2F)c1NS(=O)(=O)C1(C[C@H](O)CO)CC1 [RDEA119]; details: top dose 5 µM, top dose inferred
Procedure: as §1

QS11 = compound: OC[C@H](Cc1ccccc1)Nc1nc(Oc2ccc3c(c2)CCC3)nc2c1ncn2Cc1ccc(-c2ccccc2)cc1 [QS11]; details: top dose 10.24 µM
Procedure: as §1

| Cell Line | AUC (OSU-03012) | pIC50 (OSU-03012) | AUC (CUDC-101) | pIC50 (CUDC-101) | AUC (AC220) | pIC50 (AC220) | AUC (5-Fluorouracil) | pIC50 (5-Fluorouracil) | AUC (JNK-9L) | pIC50 (JNK-9L) | AUC (RDEA119; screen: GDSC drug entry 1014) | pIC50 (RDEA119; screen: GDSC drug entry 1014) | AUC (QS11) | pIC50 (QS11) | AUC (RDEA119; screen: GDSC drug entry 1526) | pIC50 (RDEA119; screen: GDSC drug entry 1526) |
| --- | --- | --- | --- | --- | --- | --- | --- | --- | --- | --- | --- | --- | --- | --- | --- | --- |
| GCIY (stomach, adherent) | 0.728 | 5.31 | 0.606 | 6.19 | 0.984 | < 5.99 | 0.915 | < 4.49 | 0.388 | 6.82 | 0.681 | 5.97 | 0.862 | < 4.99 | – | – |
| GCT (soft tissue, adherent) | 0.882 | 4.83 | 0.933 | < 5.29 | 0.989 | < 5.99 | 0.989 | < 4.49 | 0.467 | 6.58 | – | – | 0.989 | < 4.99 | 0.919 | < 5.30 |
| GI-1 (glioma, adherent) | 0.798 | 5.14 | 0.455 | 6.62 | 0.986 | < 5.99 | 0.81 | 4.80 | 0.456 | 6.61 | 0.929 | < 5.30 | 0.802 | 5.32 | 0.933 | < 5.30 |
| GI-ME-N (neuroblastoma, adherent) | 0.863 | < 4.80 | 0.415 | 6.76 | 0.939 | < 5.99 | 0.732 | 4.92 | 0.607 | 6.15 | 0.702 | 5.84 | 0.977 | < 4.99 | 0.677 | 5.93 |
| GMS-10 (glioma, adherent) | 0.889 | < 4.80 | 0.855 | 5.40 | 0.988 | < 5.99 | 0.984 | < 4.49 | 0.619 | 6.17 | 0.845 | 5.45 | 0.96 | < 4.99 | 0.829 | 5.51 |
| GOTO (neuroblastoma, adherent) | 0.815 | 4.98 | 0.487 | 6.53 | 0.983 | < 5.99 | 0.523 | 5.63 | 0.645 | 6.07 | 0.967 | < 5.30 | 0.825 | 5.14 | 0.964 | < 5.30 |
| GP5d (large intestine, adherent) | 0.785 | 5.21 | 0.586 | 6.27 | 0.948 | < 5.99 | 0.909 | < 4.49 | 0.526 | 6.43 | – | – | 0.984 | < 4.99 | 0.877 | 5.39 |
| GR-ST (lymphoblastic leukaemia, suspension) | 0.537 | 5.89 | 0.449 | 6.65 | 0.946 | < 5.99 | 0.814 | 4.65 | 0.632 | 6.10 | 0.981 | < 5.30 | 0.799 | 5.21 | 0.967 | < 5.30 |
| GRANTA-519 (B-cell lymphoma, suspension) | 0.702 | 5.46 | 0.717 | 5.91 | 0.987 | < 5.99 | 0.877 | 4.58 | 0.723 | 5.90 | 0.985 | < 5.30 | 0.941 | < 4.99 | – | – |
